This list was built around the results that the source calls inconclusive (neither active nor inactive); the mix of calls is not that of the screen. Potencies of inconclusive entries are left out as doubtful fits. Activity calls are given as the source filed them. Calls follow the shape of the dose curve; as a rule, active = well fitted inhibition curve with a large enough effect; inconclusive = small, poorly fitted or top-dose-only effect; inactive = no such curve, though single readings can be large or run the other way.
target: Cytochrome P450 3A7 (Homo sapiens) (UniProt P24462); test: Cytochrome P450 family 3 subfamily A member 7 (CYP3A7) small molecule antagonists: luciferase biochemical qHTS assay (AID 1963596); settings: P450-Glo CYP3A7 enzyme luminescence, 1 h; series mostly up to 57.4 µM; also: nearly all actives have a fitted effect of over 40% in size
Procedure, shortened: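 Recombinant CYP3A7 P450-Glo luminescent assay: enzyme-proluciferin substrate mix preincubated with compound 10 min at room temperature, reaction started with NADPH regeneration system for 1 h. Luciferin detected by luminescence; ketoconazole as positive control.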
% is scaled to controls: 0 for no effect and ±100 for the full control effect; potency is read from the fitted curve at half-maximal effect; tags tell the direction and shape of the fitted curve.

UniProt P24462, sequence (P24462 whole entry, looked up): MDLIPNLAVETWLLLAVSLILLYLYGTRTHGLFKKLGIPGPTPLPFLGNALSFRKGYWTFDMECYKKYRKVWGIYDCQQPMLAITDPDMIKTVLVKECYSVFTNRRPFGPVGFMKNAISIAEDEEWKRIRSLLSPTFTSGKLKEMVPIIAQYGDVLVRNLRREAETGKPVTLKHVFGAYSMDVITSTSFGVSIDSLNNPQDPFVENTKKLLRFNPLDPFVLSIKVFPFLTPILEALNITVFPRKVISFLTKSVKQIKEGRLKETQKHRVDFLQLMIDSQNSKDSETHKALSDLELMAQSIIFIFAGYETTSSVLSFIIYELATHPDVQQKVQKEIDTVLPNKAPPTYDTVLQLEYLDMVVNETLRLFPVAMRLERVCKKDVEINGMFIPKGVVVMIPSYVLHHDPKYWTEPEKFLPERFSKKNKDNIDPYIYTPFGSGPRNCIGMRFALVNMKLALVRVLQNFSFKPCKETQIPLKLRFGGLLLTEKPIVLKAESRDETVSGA

Compound | Potency | activity change, negative = inhibition
COc1ccncc1C(=O)NC(=O)Nc1ccc(-c2ccccc2)c(C(F)(F)F)c1 | inconclusive [inhibitor, full curve, poor fit] | –
CCC[C@H](N[C@@H](C)C(=O)N1[C@H](C(=O)O)C[C@@H]2CCCC[C@@H]21)C(=O)O | inactive | –
CC(C)C(=O)c1c(C(C)C)nn2ccccc12 | inactive | –
COc1ccc(C(=O)C2CCN(CC(=O)N(Cc3nc4c(c(=O)[nH]3)COCC4)CC3CC3)CC2)cc1 | inconclusive [inhibitor, partial curve] | –
NC(=O)NC1N=C([O][Al])NC1=O (stereo not given) | active: 12.3 µM | –
CC1(NC(=O)c2ccc(C#Cc3cccc(F)c3)cn2)COC1 | inconclusive [inhibitor, single point] | –
CCOc1cccc(NC(=O)c2ccc(N3CCCC3)c(C(F)(F)F)c2)c1 | inconclusive [inhibitor, partial curve, poor fit] | –
COCCN(C)Cc1ccc2nc3sc(C(=O)N(C)C4CCCCC4)cn3c2c1 | inconclusive [inhibitor, partial curve] | –
CCCCOCCOC(=O)c1cccnc1 | inactive | –
CN1C(=O)N(c2cc(Cl)cc(Cl)c2)C(=O)[C@@]1(C)Cc1ccc(Br)cc1 | inconclusive [inhibitor, full curve] | –
Nc1nc2c(c(N3CCNCC3)n1)CCC1=C2[C@@H]2CCCC[C@@H]2O1 | inconclusive [inhibitor, single point] | –
O=C(O)C1(C(=O)O)CCC1.[NH2-].[NH2-].[Pt+2] | inconclusive [inhibitor, single point] | –
COCCCNCC1COc2ccccc2O1 (stereo not given) | inactive | –
CC(=O)Nc1nc2c(Oc3cc(-c4ccc(C(F)(F)F)cc4)ncn3)cccc2s1 | active: 26.8 µM | –
Cc1nc2cc(-c3cc(F)cc(C#N)c3)ccc2s1 | inconclusive [inhibitor, full curve, poor fit] | –
Oc1ccccc1-c1cc(-c2ccccc2F)[nH]n1 | inconclusive [inhibitor, partial curve, poor fit] | –
O=C(c1cc(O)c(O)c(O)c1)c1ccc(O)c(O)c1O | inconclusive [inhibitor, single point] | –
COc1cc2c(cc1OCCCN1CCCC1)N=C(N)C21CCC1 | inconclusive [inhibitor, single point] | –
COc1ccc(CN(CCN(C)C)c2ccccn2)cc1 | inactive | –
COc1cc(O)c(C(=O)c2ccccc2)cc1S(=O)(=O)O | inconclusive [inhibitor, full curve, poor fit] | –

Compound | Potency | activity change, negative = inhibition
CC(=O)SCC(CC(=O)c1ccc(C)cc1)C(=O)O (stereo not given) | inconclusive [inhibitor, single point] | –
CC(C)[N+](C)(CCOC(=O)C1c2ccccc2Oc2ccccc21)C(C)C | inconclusive [inhibitor, full curve] | –
On1ncc(C2CCNCC2)c1-c1cccc(-c2ccccc2)c1 | inactive | –
O=C(c1ccc(OC(F)F)c(C#Cc2ccccn2)c1)N1Cc2cccnc2C1 | inactive | –
CC[C@@H](C)[C@H](N)C(=O)N1Cc2ccccc2C1 | inconclusive [inhibitor, single point] | –
CC[C@H]1CN(c2nc(N)c(C(N)=O)nc2Cl)CCN1C1CCN(Cc2ccc(Cl)cc2)CC1 | inconclusive [inhibitor, full curve] | –
C[C@H](N)C(=O)N[C@@H](C)C(=O)NC1[C@H]2CN(c3nc4c(cc3F)c(=O)c(C(=O)O)cn4-c3ccc(F)cc3F)C[C@@H]12 (stereo not given in full) | inconclusive [inhibitor, partial curve, poor fit] | –
CC(=O)CC(c1ccc([N+](=O)[O-])cc1)c1c(O)c2ccccc2oc1=O (stereo not given) | inconclusive [inhibitor, partial curve] | –
CN1CCC(Nc2nc(Nc3ccc(Oc4ccccc4)cc3)c3c(=O)[nH]cc(Br)c3n2)CC1 | active: 6.74 µM | –
O=c1cc(OCc2ccc(F)cc2)ccn1-c1ccc(OCCN2CCCC2)cc1 | inconclusive [inhibitor, single point] | –
CCOc1nc2cccc(C(=O)O)c2n1Cc1ccc(-c2ccccc2-c2noc(=O)[nH]2)cc1 | inconclusive [inhibitor, partial curve, poor fit] | –
Nc1ccc(/C=C/c2ccc(N)cc2S(=O)(=O)O)c(S(=O)(=O)O)c1 | – | inactive: 6.59% [at 0.91 µM]
CC(=O)c1ccc(O)c(C(N)=O)c1 | inconclusive [inhibitor, partial curve, poor fit] | –
CCNC(=O)C1CC(F)(c2ccc(CN3CCCC3)c(F)c2)C1 (stereo not given) | inactive | –
[O-][n+]1cccc(/C(Cl)=N/OC[C@@H](O)CN2CCCCC2)c1 | inactive | –
COc1cc(C(=O)NCCCCCC(=O)O)cc(OC)c1OC | inactive | –
CN1CC2CN(c3ccc4oc5ccccc5c(=O)c4c3)CC2C1 (stereo not given) | inactive | –
NS(=O)(=O)c1cc(C(=O)NN2C[C@H]3[C@H]4CCC(C4)[C@H]3C2)ccc1Cl | inconclusive [inhibitor, partial curve] | –
CCN1CCC[C@@H]1CNC(=O)c1ccc2c(c1)NC(=O)c1cccc(C)c1S2 | active: 20 µM | –
O=C(CCCCC(=O)Nc1c(I)cc(I)c(C(=O)O)c1I)Nc1c(I)cc(I)c(C(=O)O)c1I | inactive | –
